According to publication PMC4336329 (PLoS ONE, 2015):
The campaign covered roughly 310,000 compounds. About 2,200 (0.71%) showed an effect of 50% or more. The effect is printed as a negative number. The list shows a part of the results. Where a SMILES comes first, the peptide text is derived from it. The star is where a group is joined. OBn = c1ccc(CO*)cc1

Each molecule was assayed against human ether-à-go-go-related gene (hERG) potassium channel (human, UniProt Q12809) (assay: primary screen, population patch clamp on CHO cells stably expressing hERG).
human ether-à-go-go-related gene (hERG) potassium channel, sequence (Q12809 whole entry, looked up): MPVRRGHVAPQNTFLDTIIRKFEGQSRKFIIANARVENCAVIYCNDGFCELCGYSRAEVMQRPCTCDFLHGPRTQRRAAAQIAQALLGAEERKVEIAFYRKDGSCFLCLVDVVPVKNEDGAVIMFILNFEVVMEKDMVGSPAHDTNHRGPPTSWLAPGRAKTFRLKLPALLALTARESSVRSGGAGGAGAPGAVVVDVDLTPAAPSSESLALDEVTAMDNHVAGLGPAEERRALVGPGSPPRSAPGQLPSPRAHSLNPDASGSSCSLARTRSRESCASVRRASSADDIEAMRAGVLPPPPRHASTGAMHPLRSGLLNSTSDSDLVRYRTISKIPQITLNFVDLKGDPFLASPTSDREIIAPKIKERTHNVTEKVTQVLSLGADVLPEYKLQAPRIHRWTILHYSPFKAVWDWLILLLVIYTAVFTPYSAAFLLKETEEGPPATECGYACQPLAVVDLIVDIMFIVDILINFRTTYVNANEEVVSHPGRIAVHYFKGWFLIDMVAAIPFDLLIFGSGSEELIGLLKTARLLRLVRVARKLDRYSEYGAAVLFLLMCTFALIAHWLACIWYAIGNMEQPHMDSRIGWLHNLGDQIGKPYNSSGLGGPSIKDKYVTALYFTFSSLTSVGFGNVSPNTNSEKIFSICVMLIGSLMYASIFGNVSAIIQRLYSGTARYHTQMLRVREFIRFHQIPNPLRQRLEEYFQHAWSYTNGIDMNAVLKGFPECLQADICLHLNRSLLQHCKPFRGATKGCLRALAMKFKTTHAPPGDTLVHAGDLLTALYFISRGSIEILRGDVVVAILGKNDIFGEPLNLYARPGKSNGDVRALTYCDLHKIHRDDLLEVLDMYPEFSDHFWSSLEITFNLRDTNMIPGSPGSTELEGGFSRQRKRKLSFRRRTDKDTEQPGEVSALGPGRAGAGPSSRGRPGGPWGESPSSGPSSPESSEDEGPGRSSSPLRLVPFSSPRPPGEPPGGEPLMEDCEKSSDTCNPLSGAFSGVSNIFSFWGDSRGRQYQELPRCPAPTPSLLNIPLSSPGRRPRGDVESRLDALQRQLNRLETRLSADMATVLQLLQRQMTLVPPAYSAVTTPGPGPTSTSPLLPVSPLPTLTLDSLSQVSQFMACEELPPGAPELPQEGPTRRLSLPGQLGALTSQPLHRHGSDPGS

Compound	hERG current change (%, negative = inhibition) at 1uM [%]
O=C(OCC(=O)c1c[nH]c2ccccc12)c1ccc(Br)o1	-13.4
COc1cc(NC(=O)c2cc([N+](=O)[O-])ccc2NC(=O)CNC2CCCCC2C)cc(OC)c1 (stereo not shown)	17.4
COC(=O)[C@H](Cc1ccccc1)NC(=O)[C@@H](N)CC(=O)OCc1ccccc1.[Cl-] (H-Asp(OBn)-Phe-OMe)	19.7
CC(C)OCc1ccc(C(=O)N2CCN(S(=O)(=O)c3ccc(Br)s3)CC2)cc1	6.71
CCOC(=O)CNC(=O)CSc1nnc(-c2c[nH]c3ccccc23)n1CC	4.73
COc1cc(/C=N/NC(=O)c2csc3c2CCCC3)cc(OC)c1O	9.45
NC(=O)c1ccc(NC(=O)C2CCCO2)cc1 (stereo not shown)	2.68
CC(Oc1ccc(Cl)cc1Cl)c1ccn[nH]1 (stereo not shown)	4.3
CCNC(=O)N1CCNC(=O)C1CC(=O)OC (stereo not shown)	9.95
CC/S(=N\S(=O)(=O)c1ccc(C)cc1)c1ccccc1 (stereo not shown)	11.7
O=C(NCCCl)c1ccc(OCc2ccccc2)cc1Cl	12.5
COC(=O)C1=C(c2ccc(OC)c(OC)c2)C[C@@H]2CC[C@H]1N2C(=O)NCc1ccc(F)cc1	1.04
CCn1c(=O)n(CC(=O)Nc2cc(OC)ccc2OC)c(=O)c2ccccc21	12.1
CCS(=O)(=O)N1CCN(C(=O)c2cccs2)CC1	4.6
O=C(COC(=O)/C=C/c1ccc(OC(F)F)cc1)NCCN1C(=O)CSC1=O	-13.5
CNC(=O)/C=C/c1cc(C(=O)c2ccc(Cl)cc2Cl)cn1C	14.9
O=C(NCc1cccnc1)c1ccccc1Br	-10.5
CCOC(=O)C(NCCCCl)c1ccccc1 (stereo not shown)	5.7
CN(C)C(=O)c1cc([N+](=O)[O-])cc([N+](=O)[O-])c1N(C)C	8.23
COc1ccc(C(=O)N/C(=C\c2cccc3ccccc23)C(=O)N2CCN(C)CC2)cc1	-20.8
COc1ccccc1/C=C/C(=O)c1cc(Br)ccc1OC(=O)c1ccco1	14.8
O=C(Nc1ccccc1)c1ccc(-c2ccc(Br)cc2)o1	11.4
CCOC(=O)C1CCCN(C(=O)c2cn(CC)c3ccc(S(=O)(=O)N(C)C)cc3c2=O)C1 (stereo not shown)	10.6
COc1ccc(C2C(C(C)=O)=C(O)C(=O)N2C)c(OC)c1 (stereo not shown)	7.38
COc1ccc(-c2nc3c(s2)CCc2onc(-c4ccc(OC)cc4)c2-3)cc1	-2.16
CC(C)CNC(=O)CC(=O)NN=C1CCCC1	13.9
COC(=O)CSc1nnc(CCc2ccccc2)n1C	11.3
N#C/C(=N\Nc1ccc(S(=O)(=O)N2CCOCC2)cc1)C(N)=S	15.9

Compound	hERG current change (%, negative = inhibition) at 1uM [%]
COc1cc(OC)c(OC)cc1CN1CCN(C(=O)Cc2ccccc2)CC1.O=C(O)C(=O)O	10.3
CC(c1ccco1)N(C(=O)c1ccc(Cl)c([N+](=O)[O-])c1)c1ccccn1 (stereo not shown)	7.02
CCOc1cc(N2CCOCC2)c(OCC)cc1NC(=O)CCS(=O)(=O)c1ccc(Cl)cc1	-11.4
Cl.O=C(c1cccc(S(=O)(=O)N2CCCCC2)c1)N1CCN(Cc2ccccc2)CC1	6.64
CCn1c(COc2ccccc2)nc2ccccc21	17
N#CC(C#N)=C1C=CC=CN1/C(=C\c1ccco1)C(=O)c1ccccc1	-4.77
NC(=O)NC(=O)COC(=O)c1ccc(OC(F)(F)F)cc1	-3.74
COc1cc([N+](=O)[O-])ccc1NC(=O)Cn1ccsc1=N.O=C(O)C(=O)O	12.9
COc1ccc(C2CCCN2C(=O)Nc2ccc(Cl)cc2)cc1OC (stereo not shown)	0.443
Cc1sc(NC(=O)CSc2nnc(N)s2)c(C#N)c1C	20.1
CC(=O)N1c2ccc(S(=O)(=O)N3CCC(C(=O)N4CCN(c5cccc(C(F)(F)F)c5)CC4)CC3)cc2CC1C (stereo not shown)	17.7
CCN(CC)C(=O)c1cc2cc(Br)ccc2oc1=O	5.75
CC1CCN(C(=O)COc2ccc(S(=O)(=O)N3CCCC3)cc2)CC1	15.2
Cc1cc2c(cc1S(=O)(=O)CCC(=O)N(C)C1CCCCC1)OCC(=O)N2	-4.23
CC(C)CC(=O)N1CCN(Cc2ccc3c(c2)OCO3)CC1	3.43
CCOc1ccc(N(CC)C(=O)c2nn(-c3ccc(OC)cc3)c(=O)c3c2c2ccccc2n3C)cc1	12.4
O=C(Oc1ccccc1/C=C\C(=O)c1cc2ccccc2o1)c1cccc(F)c1	4.26
OCC[C@H]1C[C@H](O)[C@@H](O)[C@]2(CCc3ccccc3CO2)O1	9.46
CCCCSc1nc(SCC(=O)NCc2ccco2)c2c3c(sc2n1)COC(C)(CC)C3 (stereo not shown)	11.7
Cc1cc(NC(=O)c2ccc(F)cc2)n(CCOC(=O)c2ccc(F)cc2)n1	11.8
CCN(C(=O)CCc1nc(-c2ccc(OC)cc2)no1)c1cc(OC)ccc1OC	4.49
CCCCC(CC)CNCc1cccn1CCN1CCOCC1.O=C(O)C(=O)O (stereo not shown)	8.84
CC(=O)Nc1ccc(NC(=O)CS(=O)(=O)c2cn(CC(=O)N3CCCCC3)c3ccccc23)cc1	9.93
CCN1C(=O)[C@H]2[C@@H](c3ccc(-c4ccccc4)cc3)N3CCCC[C@@]3(C(=O)OC)[C@H]2C1=O.O=C(O)C(F)(F)F	11.1
COCCNc1ncnc2nc[nH]c12	10.7
CCCN1CCC(NC(=O)CC2C(=O)NCCN2Cc2cccc(OC)c2)CC1 (stereo not shown)	5.96
O=C(COc1ccccc1Cl)Nc1ccc2c(c1)C(=O)NC2=O	2.28
